Values joined by “and” are separate entries in the source; they are usually repeats but may differ in a detail not shown here. Equal entries are not always repeated. The campaign covered roughly 16,000 compounds. About 40 (0.2%) were called active. Another 1% or so got no clear call; they are omitted. Calls come from the whole dose curve; as a rule, active = well fitted activation curve with a large enough effect; inconclusive = small, poorly fitted or top-dose-only effect, or another doubt; inactive = no such curve, though single readings can be large or run the other way. Some of the results follow.
Target: Rap guanine nucleotide exchange factor 4 (Homo sapiens) (UniProt Q8WZA2)
Chain of UniProt Q8WZA2 (Q8WZA2 whole entry, looked up): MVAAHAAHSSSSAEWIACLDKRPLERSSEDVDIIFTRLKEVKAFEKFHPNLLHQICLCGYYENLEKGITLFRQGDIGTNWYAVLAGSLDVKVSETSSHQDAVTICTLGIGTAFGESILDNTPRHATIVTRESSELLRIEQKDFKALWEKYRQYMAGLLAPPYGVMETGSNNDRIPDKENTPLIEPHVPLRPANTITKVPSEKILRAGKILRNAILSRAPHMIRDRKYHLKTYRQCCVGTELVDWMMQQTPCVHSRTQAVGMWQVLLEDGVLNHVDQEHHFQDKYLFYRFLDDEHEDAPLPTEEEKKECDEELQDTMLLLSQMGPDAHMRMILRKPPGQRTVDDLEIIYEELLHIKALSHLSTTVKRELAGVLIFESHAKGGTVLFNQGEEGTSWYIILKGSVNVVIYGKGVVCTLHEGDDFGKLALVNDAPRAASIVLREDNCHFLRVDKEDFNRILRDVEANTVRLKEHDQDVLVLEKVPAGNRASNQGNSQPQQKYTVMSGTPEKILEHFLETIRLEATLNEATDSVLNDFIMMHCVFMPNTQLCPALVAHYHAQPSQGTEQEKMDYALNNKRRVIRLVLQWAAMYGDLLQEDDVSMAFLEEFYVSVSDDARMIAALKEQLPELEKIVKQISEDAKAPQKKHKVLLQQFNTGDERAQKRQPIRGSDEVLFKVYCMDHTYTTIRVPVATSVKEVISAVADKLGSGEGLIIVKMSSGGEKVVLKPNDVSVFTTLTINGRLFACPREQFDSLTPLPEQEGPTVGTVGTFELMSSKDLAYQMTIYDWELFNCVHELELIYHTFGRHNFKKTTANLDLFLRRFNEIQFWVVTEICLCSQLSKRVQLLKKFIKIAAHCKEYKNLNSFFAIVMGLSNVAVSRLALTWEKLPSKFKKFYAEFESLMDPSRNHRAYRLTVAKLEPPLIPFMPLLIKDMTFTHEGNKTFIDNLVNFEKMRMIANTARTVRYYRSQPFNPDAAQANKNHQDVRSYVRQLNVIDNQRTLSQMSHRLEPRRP
Test: Validation qHTS for agonist of cAMP-regulated guanine nucleotide exchange factor 4 (EPAC2);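 note: exchange makes BODIPY-GDP fluorescence drop when released from Rap1B; series mostly up to about 150 µM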
Conditions: EPAC2 Rap1B BODIPY-GDP exchange, fluorescence; activation: stronger effect = higher value
Outline: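 Fluorescent exchange assay: 100 nM EPAC2 with 250 nM RAP1B-BODIPY-GDP and 50 uM GDP; compound added, 5 min at room temperature, then read (ex 480/em 540 nm) every 5 min for 30 min. Normalized to 6.5 mM cAMP agonist control.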
% is set by controls: 0 for no effect and ±100 for the full control effect.

activation, inactive:
CN1C[C@H](C(=O)N[C@]2(C)O[C@@]3(O)[C@@H]4CCCN4C(=O)[C@H](Cc4ccccc4)N3C2=O)C[C@@H]2c3cccc4[nH]cc(c34)C[C@H]21 -2.03% and -17%
CN(Cc1ccco1)c1ncnc2ccc(-c3ccccc3Cl)cc12 -4.17%
O=C(O)COCCN1CCN(C(c2ccccc2)c2ccc(Cl)cc2)CC1 (stereo not drawn) -18% and 10% and -15.7%
O=C1CCC[C@@H]2C[C@@]3(C[C@@H]4CCN1[C@H]24)Nc1ccccc1NC3=NCc1ccccc1 -15.8%
COC(=O)C[C@H]1c2cc(F)ccc2S(=O)(=O)N1c1ccc(N(C)C)cc1 -15.9%
O=C1c2ccccc2C(=O)C1c1ccc(Cl)cc1 -0.0548%
OCC1CCCN(c2nc3cc4c(cc3cc2CNCc2cccc(C(F)(F)F)c2)OCO4)C1 (stereo not drawn) 1.69%
CC(=O)Oc1ccc(C(=C2CCCCC2)c2ccc(OC(C)=O)cc2)cc1 -4.2%
O=C(c1cc(C(F)(F)F)cc(C(F)(F)F)c1)N1CCC[C@@]2(CCN(Cc3ccncc3)C2)C1 -34.2%
COc1ccc2cc([C@H](C)CO)ccc2c1 -5.75%
O=C(O)c1ccccn1 -4.28%
CCCc1c2oc(C(=O)O)cc(=O)c2cc2c(=O)cc(C(=O)O)n(CC)c12 -8.09%
Oc1cc(O)c2c(c1)OC(c1cc(O)c(O)c(O)c1)C(O)C2 (stereo not drawn) -21.4%
COc1cc2c(cc1OC)[C@@H](Cc1cc(OC)c(OC)c(OC)c1)[N+](C)(CCCOC(=O)CC/C=C/CCC(=O)OCCC[N+]1(C)CCc3cc(OC)c(OC)cc3[C@H]1Cc1cc(OC)c(OC)c(OC)c1)CC2 (stereo partly drawn) -0.0601% and -0.0119%
CC(=O)OCC(=O)[C@@]12OC(C)(C)OC1CC1C3CC(F)C4=CC(=O)C=C[C@@]4(C)[C@@]3(F)C(O)C[C@]12C (stereo partly drawn) 0.406%
COC(=O)/C=C/c1cc(F)ccc1S(=O)(=O)NC(C)(C)C -14.1%
Cc1cc(C)nc(-c2cccc3c2OC(CNC(=O)c2ccc(Cn4nc(C)cc4C)cc2)C3)n1 (stereo not drawn) -5.48%
O=S1(=O)CCOCCCN1Cc1cccc(F)c1 -1.25%
C[C@H]1CN(C2CCCCC2)C(=O)[C@@H]1CC(=O)NCc1ccccc1 -33%
C[C@@H]1C(=O)CC2C(C)(C)CCC[C@]2(C)[C@@]1(O)CCc1ccoc1 (stereo partly drawn) -17.1%
CC(C)N1CCN(C(=O)c2cnn(-c3nccc(-c4ccc5c(c4)OCO5)n3)c2-c2ccco2)CC1 5.25%
CSc1ccccc1C(=O)NCC1Cc2cccc(-c3ncccc3C)c2O1 (stereo not drawn) -1.01%
Cc1cc(-n2c(=O)[nH]c(=O)n(C)c2=O)ccc1Oc1ccc(S(=O)(=O)C(F)(F)F)cc1 -11.8%
CC(=O)O[C@]1(C(C)=O)CC[C@H]2[C@@H]3C=C(Cl)C4=CC(=O)[C@@H]5C[C@@H]5[C@]4(C)[C@H]3CC[C@@]21C -23.7% and -32.8%
COc1ccc(C(=O)NCc2nc(-c3ccccc3NC(=O)c3cc(C)oc3C)oc2C)cc1F -11.9%
CCCCCCCCCCCCCCCC[n+]1ccc(/C=C/c2c[nH]c3ccccc23)cc1 -43.9%
O=C(O)C1CCCN(CCC=C(c2ccccc2)c2ccccc2)C1 (stereo not drawn) -14.9% and 11.6% and -19%
CC1(C)OC2CC3C4CC(F)C5=CC(=O)C=CC5(C)C4C(O)CC3(C)[C@]2(C(=O)CO)O1 (stereo partly drawn) -1.9%
COc1cc(CN2CCC3(CC2)c2ccccc2[C@@H](NC(=O)c2ccccc2OC)[C@@H]3O)ccc1F -11.5%
COc1ccccc1-c1cncnc1NCCc1cnc[nH]1 6.47%
O=C(O)/C=C/c1ccc(O)c(O)c1 -3.84% [middle of 4 runs]
COc1cc2nc(N(C)CCCNC(=O)C3CCCO3)nc(N)c2cc1OC (stereo not drawn) -20.5% and -20.4% and -22.4%
c1ccc(Nc2nc(-c3ccoc3)nc3ccccc23)cc1 -7.24%
CCN(CC)c1ccc(C(=C2C=CC(=[N+](CC)CC)C=C2)c2ccccc2)cc1 -7.28%
Cc1cc[n+](C2CCCCC2)c2ccccc12 -5.26%
Oc1ccc2ccccc2c1SSc1c(O)ccc2ccccc12 -44.4%
Clc1ccc(Cn2c(CN3CCCC3)nc3ccccc32)cc1 -33% and -11%
CCOC(=O)N1CCN(Cc2ccc3c(c2)CN(C(=O)c2ccc4ncccc4c2)CCO3)CC1 -8.18%
[O-][N+]12CCCc3cccc(c31)CCC2 -20.7%
C[C@@](N)(C(=O)O)c1ccc(C(=O)O)cc1 -7.88% and -19% and 6.48%
COc1ccccc1Oc1coc2cc(O)ccc2c1=O -11.8%
O=C(O)/C(=C/c1c(C(=O)O)[nH]c2cc(Cl)cc(Cl)c12)c1ccccc1 -13.7%
CN(C)c1ccc(CN2CCOc3ccc(CN4CCC(O)(c5cccnc5)CC4)cc3C2)cc1 -5.16%
CCn1nc(C)cc1C(=O)NCC1Cc2cccc(-c3cccnc3)c2O1 (stereo not drawn) -3.64%
CCC1(C2CCN(Cc3cccnc3)CC2)NC(=O)N(CC2COc3ccccc3O2)C1=O (stereo not drawn) -7.03%
C[N+](C)(C)CCCCCCCCCC[N+](C)(C)C -17.2% and -5.26%
CC(=O)c1ccc(C(=O)NCC2Cc3cccc(-c4ncccn4)c3O2)cc1 (stereo not drawn) -6.58%
Cn1cccc1C(=O)N1CCC2(CCCN(Cc3ccncc3)C2)CC1 -18.9%
COCCNc1nc(-c2ccoc2)nc2ccccc12 -12.8%
COc1ccc(NC(=O)N2CC3(CCN(C(=O)c4cnccn4)CC3)C2)cc1 -5.66%
OCc1ccc(Cl)cc1Cl -24.7%
CN(C)c1ncc2nc(-c3ccccc3)c(=O)n(CCc3ccccc3)c2n1 -8%
CCOc1ccc2nc(N3CCCN(CCCn4cccn4)CC3)nc(C)c2c1 -12.1%
O=C(Cc1ccc(Cl)cc1)c1c(O)cc(O)cc1O 6.33%
CN1C[C@@H]2C[C@H]1CN2c1cc2c(cc1F)c(=O)c(C(=O)O)cn2C1CC1 -0.428%
CCCCCCCCCCCCCC[n+]1ccc(C)cc1 -4.19%
N[C@@H](Cc1c[nH]c2ccc(O)cc12)C(=O)O 0.53% and -32.9%
CN(C)c1ncc2ncc(=O)n(C)c2n1 -9.39%
O=C(O)Cc1nn(Cc2ccc(Br)cc2F)c(=O)c2ccccc12 -24.9%
CCc1cccc2c(C(O)c3c[nH]c4ccccc34)c[nH]c12 (stereo not drawn) -5.45%
N#CCCn1c(=O)c(-c2cccc(C#N)c2)nc2cnc(Oc3cccc(Cl)c3)nc21 4.2%
OC1(c2cccnc2)CCN(Cc2ccc3c(c2)CN(Cc2ccsc2)CCO3)CC1 -3.86%
N[C@@H](C(=O)O)c1cc(O)ccc1Cl -21.6%
Cc1cc2c(c(-c3cnccn3)c1)OC(CNC(=O)c1ccccc1C(F)(F)F)C2 (stereo not drawn) -8.97%
Cc1cc(C)c2c(C)ccnc2c1 -20.4%
COC(=O)C1N[C@@H]([C@@H](NC(=O)COc2ccccc2)C(=O)NCc2ccc(OC)cc2)SC1(C)C (stereo partly drawn) -23.7%
NC(N)=Nc1ccc(Cl)cc1 -18.4%
Cc1cc(CNC(=O)c2cnn(-c3nccc(-c4ccc5c(c4)OCO5)n3)c2C2CC2)on1 -10.2%
CC1c2ccccc2CN1NC(=O)c1ccc(Cl)c(S(N)(=O)=O)c1 (stereo not drawn) 3.5%
O=C(c1ccncc1)N1CCC2(CCCN(Cc3ccncc3)C2)CC1 -13.6%
[N-]=[N+]=NCC1OC(n2cnc3c(=O)[nH]c(N)nc32)C(O)C1O (stereo not drawn) 1.52%
COCCNc1ncnc2ccc(-c3ccccc3CN(C)C)cc12 -5.32%
CCCCCCCCCCCCCCCC(=O)OC[C@@H](NC(=O)C(Cl)Cl)[C@H](O)c1ccc([N+](=O)[O-])cc1 4.84%
CN(CCO)C(=O)c1cn(C2CCN(Cc3ccc(C(F)(F)F)cc3)CC2)nn1 7.53%
COc1cc(OC)cc(OC)c1 -16%
O=C(O)Cc1ccccc1Oc1ccc(Cl)cc1Cl -4.33%
CNC1C(O)C(O)C(CO)O[C@H]1OC1C(O[C@@H]2C(O)C(O)[C@@H](N=C(N)N)C(O)C2N=C(N)N)OC(C)[C@]1(O)C=O (stereo partly drawn) 2.43%
COc1cc(O)c(C(=O)c2ccccc2)cc1S(=O)(=O)O -1.07%
CCCCC(CC)COC(=O)c1ccc(N(C)C)cc1 (stereo not drawn) -8.25%
COC(=O)C1CCN(Cc2ccc3c(c2)CN(C(=O)C(C)N2CCOCC2)CCO3)CC1 (stereo not drawn) -19.8%
C/C=C1\C2C=C(C)CC1(N)c1ccc(=O)[nH]c1C2 (stereo not drawn) -0.903%
Cc1ccnc2ccc(Br)cc12 -17.7%
Cc1o[nH]c(=O)c1CC[C@H](N)C(=O)O -22.7%

Source: PubChem BioAssay AID1645887 (National Center for Advancing Translational Sciences (NCATS), 2021)
